This is one part of the list. Values come from read counts of a selection and are noisy.

Holding throughout (assay): mean normalised NGS count of phage-displayed peptide after selection on bait (% of reads); baits are purified protein domains named by gene / domain / UniProt id / residues; peptides come from disordered regions of human proteins; higher = stronger enrichment / binding
Experiment [1] concerns the target T1, AP2_Mu__Q96CW1_160_435.
T1 chain: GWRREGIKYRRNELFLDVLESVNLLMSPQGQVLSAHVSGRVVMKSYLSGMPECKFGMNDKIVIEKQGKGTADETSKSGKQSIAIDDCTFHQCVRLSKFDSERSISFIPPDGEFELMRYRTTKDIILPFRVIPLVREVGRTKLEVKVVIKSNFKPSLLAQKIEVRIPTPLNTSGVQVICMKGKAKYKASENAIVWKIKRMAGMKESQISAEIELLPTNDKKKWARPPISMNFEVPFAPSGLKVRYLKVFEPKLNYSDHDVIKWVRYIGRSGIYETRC

The target in experiment [2] is BRD4_NET__O60885_601_683. To be noted: replicate selections in which the peptide was seen: 2.
In experiment [3] the target is T2, AURKA_Pkinase-merged__O14965_125_391.
T2 chain: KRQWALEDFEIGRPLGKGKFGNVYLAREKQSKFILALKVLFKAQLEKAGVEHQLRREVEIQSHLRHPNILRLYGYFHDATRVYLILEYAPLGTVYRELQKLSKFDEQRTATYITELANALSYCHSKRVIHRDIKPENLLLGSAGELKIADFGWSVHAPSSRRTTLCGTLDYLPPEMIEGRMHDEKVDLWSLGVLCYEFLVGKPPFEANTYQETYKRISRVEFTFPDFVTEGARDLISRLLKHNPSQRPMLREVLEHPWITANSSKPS

The target of experiment [4] is MK08_Pkinase__P45983_1_363.
For experiment [5], the target named is T3, CSK21_Pkinase__P68400_1_335.
T3 chain: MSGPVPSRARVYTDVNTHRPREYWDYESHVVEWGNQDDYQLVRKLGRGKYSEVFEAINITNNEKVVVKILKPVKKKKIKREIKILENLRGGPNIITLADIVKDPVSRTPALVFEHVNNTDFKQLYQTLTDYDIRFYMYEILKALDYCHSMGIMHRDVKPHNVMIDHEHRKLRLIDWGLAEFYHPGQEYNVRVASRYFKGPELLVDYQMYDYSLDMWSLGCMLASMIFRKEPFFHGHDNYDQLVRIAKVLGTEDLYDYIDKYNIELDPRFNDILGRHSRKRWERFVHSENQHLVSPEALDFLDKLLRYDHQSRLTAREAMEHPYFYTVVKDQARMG
To be noted: replicate selections in which the peptide was seen: 3.

The target of experiment [6] is T4, PDZK1_PDZ_2_Q5T2W1_132_224.
T4 chain: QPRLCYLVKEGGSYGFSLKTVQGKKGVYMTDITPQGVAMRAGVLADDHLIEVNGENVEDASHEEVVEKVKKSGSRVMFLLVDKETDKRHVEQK
To be noted: replicate selections in which the peptide was seen: 6.

The target of experiment [7] is T5, SHC_PH__P29353_149_317.
T5 chain: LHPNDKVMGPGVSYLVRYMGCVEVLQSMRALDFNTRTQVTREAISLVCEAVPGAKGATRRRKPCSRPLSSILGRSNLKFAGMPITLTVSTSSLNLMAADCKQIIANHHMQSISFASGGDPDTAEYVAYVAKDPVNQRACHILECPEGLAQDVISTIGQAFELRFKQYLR
To be noted: replicate selections in which the peptide was seen: 6.

[8] abbreviates: replicate selections in which the peptide was seen: 6.
The mark [9] stands for this setting: replicate selections in which the peptide was seen: 5.

Sequence of BRD4_NET__O60885_601_683 (chain, as listed by the source): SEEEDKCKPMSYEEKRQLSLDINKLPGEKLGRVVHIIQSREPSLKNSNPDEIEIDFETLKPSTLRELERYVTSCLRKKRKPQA
Sequence of MK08_Pkinase__P45983_1_363 (chain, as listed by the source): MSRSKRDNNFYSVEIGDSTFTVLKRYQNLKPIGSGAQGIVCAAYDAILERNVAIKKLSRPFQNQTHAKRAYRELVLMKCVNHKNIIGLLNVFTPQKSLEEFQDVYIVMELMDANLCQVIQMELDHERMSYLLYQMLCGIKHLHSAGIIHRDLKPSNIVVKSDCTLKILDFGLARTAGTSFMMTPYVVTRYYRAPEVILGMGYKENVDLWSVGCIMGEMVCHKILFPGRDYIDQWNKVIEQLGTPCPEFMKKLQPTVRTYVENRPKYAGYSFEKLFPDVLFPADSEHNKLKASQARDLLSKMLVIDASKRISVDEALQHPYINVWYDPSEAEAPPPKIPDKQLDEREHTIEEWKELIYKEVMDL

With EADGYQRLKDEVVRAQ [SMC1A 205-220 mut Q14683.R208G], the “mean normalised NGS count” value in experiment [1] (setting [8]) was 0.149.

On to WLFHTQQLLQMQLKVL [KMT2D 3513-3528 wt], for which, in experiment [2], the “mean normalised NGS count” value was 0.118.

On to SFPIVFRVLAGEWIET [SCN9A 940-955 mut P35498.L942P], for which the “mean normalised NGS count” value in experiment [2] was determined as 0.0105.

Regarding LWWGLIMLTTIGYGDK [KCNQ2 268-283 mut O43526.T274M], the “mean normalised NGS count” value in experiment [2] was determined as 3.45.

For YEQLFSSTQGEISEPS [SLX4 983-998 wt], in experiment [1] (setting [8]), the “mean normalised NGS count” value is 0.102.

Consider SFPIVFRVLAGEWIET [SCN3A 940-955 mut P35498.L942P], for which the “mean normalised NGS count” value in experiment [2] is 0.0105.

As to AYVFTLLVSLYLHDNT [MT-ATP6 211-226 wt], the “mean normalised NGS count” value in experiment [2] was found to be 0.212.

As for YHILNDPELSFLDAHK [CHD7 2114-2129 wt], the “mean normalised NGS count” value in experiment [1] (setting [8]) was 1.01.

Take ATYRPLLEGEDAHLSS [KRT16 413-428 mut P02533.R417P]: the “mean normalised NGS count” value in experiment [1] (setting [9]) is 0.871.

As for DLWSSFLTLRDHVPEL [MYCN 396-411 mut P04198.R398W], the “mean normalised NGS count” value in experiment [3] (replicate selections in which the peptide was seen: 4) is 0.328; in experiment [4] (replicate selections in which the peptide was seen: 3), 0.0667.

As for YELLEEKSQNTEDLAE [TRPC6 896-911 wt], in experiment [1] (setting [8]), the “mean normalised NGS count” value was found to be 0.868.

For SFPIVFRVLAGEWIET [SCN8A 940-955 mut P35498.L942P], the “mean normalised NGS count” value in experiment [2] was determined as 0.0105.

Consider SFPIVFRVLAGEWIET [SCN1A 940-955 mut P35498.L942P], for which the “mean normalised NGS count” value in experiment [2] worked out at 0.0105.

As to YYWNADTDLVSWLSSH [PQBP1 64-79 mut O60828.P78S], the “mean normalised NGS count” value in experiment [3] (setting [8]) turned out to be 4.09; in experiment [5], 11.2; in experiment [4] (setting [8]), 38.2; in experiment [6], 49.1; in experiment [7], 37.9.

In the case of SFPIVFRVLAGEWIET [SCN2A 940-955 mut P35498.L942P], the “mean normalised NGS count” value in experiment [2] was 0.0105.

As to YVKINDLEHSVHHATI [AHI1 774-789 mut Q8N157.W787C], the “mean normalised NGS count” value in experiment [1] (setting [9]) was 0.0973.

YERFINSETAEHIAQG [BTK 598-613 mut Q06187.T602I]: in experiment [1] (setting [8]), the “mean normalised NGS count” value stood at 16.1.

For the molecule YIELGSDYSEDTVNKA [BRCA1 179-194 mut P38398.S186Y], the “mean normalised NGS count” value in experiment [1] (setting [8]) was 5.53.

In the case of YERFTNSETDEHIAQG [BTK 598-613 mut Q06187.A607D], in experiment [1] (setting [8]), the “mean normalised NGS count” value turned out to be 13.8.

In the case of YKLLEEKSQNTEDLAE [TRPC6 896-911 mut Q9Y210.E897K], the “mean normalised NGS count” value in experiment [1] (setting [8]) worked out at 0.028.

With YERFTNSETAEHIAQD [BTK 598-613 mut Q06187.G613D], the “mean normalised NGS count” value in experiment [1] (setting [8]) was 15.4.

As for IPLLRISSADQNISEK [BRCA2 411-426 mut P51587.H415R], the “mean normalised NGS count” value in experiment [2] was determined as 0.012.

On to YHILSDPELSFLDAHK [CHD7 2114-2129 mut Q9P2D1.N2118S], for which the “mean normalised NGS count” value in experiment [1] (setting [8]) came to 0.152.

For the molecule YIELGSDSSEDTVNKA [BRCA1 179-194 wt], the “mean normalised NGS count” value in experiment [1] (setting [8]) was 0.625.

Regarding ATYRPLLEGEDAHLSS [KRT14 413-428 mut P02533.R417P], the “mean normalised NGS count” value in experiment [1] (setting [9]) is 0.871.

For YHKLLEGEEERLRLSP [LMNA 376-391 mut P02545.R377H], the “mean normalised NGS count” value in experiment [1] (setting [8]) amounted to 0.257.

For YARFGEEHSANLFHWD [ABCA4 1858-1873 mut P78363.P1869L], the “mean normalised NGS count” value in experiment [1] (setting [8]) amounted to 0.162.

Source of the values: the supplement of paper PMC11369174, “Proteome-scale characterisation of motif-based interactome rewiring by disease mutations” (Molecular Systems Biology, 2024).
